# In the supplement of paper PMC4967469:
# Experiments:
# Assay in all cases: Viability of human cancer cell lines after 72 h of drug (GDSC screen)
# QL-XI-92 = compound: C=CC(=O)Nc1cc(NC(=O)c2ccc(C)c(NC(=O)c3ccno3)c2)cc(C(F)(F)F)c1 [QL-XI-92]; settings: top dose 10.24 µM; top dose inferred
# Method: (§1)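 Human cancer cell lines in 384-well plates, medium with 10% serum, drug for 72 h over a 256-fold dose range (nine 2-fold or five 4-fold steps up to the top dose). Adherent lines were fixed and stained with the nucleic acid dye Syto60, suspension lines read with resazurin; signal relative to control wells, capped at 0 and 100%. One two-parameter sigmoid per drug and line, fitted in a mixed model over all curves with the slope shared within a line.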
# Phenformin = compound: N=C(N)NC(=N)NCCc1ccccc1 [Phenformin]; settings: top dose 4000 µM; top dose inferred
# Method: as §1
# Erlotinib = compound: C#Cc1cccc(Nc2ncnc3cc(OCCOC)c(OCCOC)cc23)c1 [Erlotinib]; settings: top dose 2 µM
# Method: as §1
# XL-184 = compound: COc1cc2nccc(Oc3ccc(NC(=O)C4(C(=O)Nc5ccc(F)cc5)CC4)cc3)c2cc1OC [XL-184]; settings: top dose 5.12 µM; top dose inferred
# Method: as §1
# Gefitinib = compound: COc1cc2ncnc(Nc3ccc(F)c(Cl)c3)c2cc1OCCCN1CCOCC1 [Gefitinib]; settings: top dose 0.5 µM
# Method: as §1
# S-Trityl-L-cysteine = compound: N[C@@H](CSC(c1ccccc1)(c1ccccc1)c1ccccc1)C(=O)O [S-Trityl-L-cysteine]; settings: top dose 5.12 µM; top dose inferred
# Method: as §1
# EHT 1864 = compound: O=c1cc(CN2CCOCC2)occ1OCCCCCSc1ccnc2cc(C(F)(F)F)ccc12 [EHT 1864]; settings: top dose 10 µM; top dose inferred
# Method: as §1
# NU-7441 = compound: O=c1cc(N2CCOCC2)oc2c(-c3cccc4c3sc3ccccc34)cccc12 [NU-7441]; settings: top dose 2 µM; top dose inferred
# Method: as §1
# AG-014699 = compound: CNCc1ccc(-c2[nH]c3cc(F)cc4c3c2CCNC4=O)cc1 [AG-014699]; settings: top dose 5 µM; top dose inferred
# Method: as §1
# WHI-P97 = compound: COc1cc2ncnc(Nc3cc(Br)c(O)c(Br)c3)c2cc1OC [WHI-P97]; settings: top dose 10.24 µM; top dose inferred
# Method: as §1
# Vinorelbine = compound: CCC1=C[C@@H]2CN(C1)Cc1c([nH]c3ccccc13)[C@@](C(=O)OC)(c1cc3c(cc1OC)N(C)[C@H]1[C@@](O)(C(=O)OC)[C@H](OC(C)=O)[C@]4(CC)C=CCN5CC[C@]31[C@@H]54)C2 [Vinorelbine]; settings: top dose 0.064 µM; top dose inferred
# Method: as §1
Cell Line,AUC (QL-XI-92),pIC50 (QL-XI-92),AUC (Phenformin),pIC50 (Phenformin),AUC (Erlotinib),pIC50 (Erlotinib),AUC (XL-184),pIC50 (XL-184),AUC (Gefitinib),pIC50 (Gefitinib),AUC (S-Trityl-L-cysteine),pIC50 (S-Trityl-L-cysteine),AUC (EHT 1864),pIC50 (EHT 1864),AUC (NU-7441),pIC50 (NU-7441),AUC (AG-014699),pIC50 (AG-014699),AUC (WHI-P97),pIC50 (WHI-P97),AUC (Vinorelbine),pIC50 (Vinorelbine)
"GI-ME-N (neuroblastoma, adherent)",0.92,< 4.99,0.592,3.31,0.947,< 5.70,0.819,5.36,0.966,< 6.30,0.743,5.68,0.918,< 5.00,0.931,< 5.70,0.873,< 5.30,0.959,< 4.99,0.542,8.27
"GR-ST (lymphoblastic leukaemia, suspension)",0.854,< 4.99,0.309,4.19,0.981,< 5.70,0.927,< 5.29,0.914,< 6.30,0.781,5.59,0.85,< 5.00,0.979,< 5.70,0.904,< 5.30,0.917,< 4.99,0.581,8.16
"GRANTA-519 (B-cell lymphoma, suspension)",0.946,< 4.99,0.733,2.97,0.991,< 5.70,0.991,< 5.29,0.991,< 6.30,0.776,5.74,0.987,< 5.00,0.971,< 5.70,0.991,< 5.30,0.988,< 4.99,0.728,7.79
"GT3TKB (stomach, adherent)",0.987,< 4.99,0.844,2.63,0.99,< 5.70,0.99,< 5.29,0.987,< 6.30,0.499,6.50,0.857,5.18,0.929,< 5.70,0.95,< 5.30,0.989,< 4.99,0.261,9.04
"HAL-01 (lymphoblastic leukaemia, suspension)",0.824,5.29,0.48,3.65,0.981,< 5.70,0.853,5.48,0.976,< 6.30,0.668,6.05,0.935,< 5.00,0.816,6.02,0.916,< 5.30,0.947,< 4.99,0.982,< 7.19
"HCC2218 (breast, suspension)",0.896,< 4.99,0.161,4.79,0.973,< 5.70,0.955,< 5.29,0.972,< 6.30,0.827,5.37,0.943,< 5.00,0.977,< 5.70,0.981,< 5.30,0.955,< 4.99,0.799,7.39
"HDLM-2 (Hodgkin lymphoma, suspension)",0.988,< 4.99,0.802,2.72,0.981,< 5.70,0.989,< 5.29,0.983,< 6.30,0.707,5.91,0.961,< 5.00,0.989,< 5.70,0.989,< 5.30,0.988,< 4.99,0.764,7.64
"HSC-39 (stomach, suspension)",0.951,< 4.99,0.99,< 2.40,0.991,< 5.70,0.989,< 5.29,0.973,< 6.30,0.716,5.93,0.862,5.17,0.969,< 5.70,0.99,< 5.30,0.991,< 4.99,0.946,< 7.19
"HT (B-cell lymphoma, suspension)",0.959,< 4.99,0.515,3.56,0.99,< 5.70,0.964,< 5.29,0.979,< 6.30,0.83,5.54,0.982,< 5.00,0.931,< 5.70,0.99,< 5.30,0.969,< 4.99,0.732,7.76
"HUTU-80 (digestive system, adherent)",0.852,5.23,0.164,4.51,0.99,< 5.70,0.84,5.57,0.988,< 6.30,0.616,6.20,0.897,5.06,0.981,< 5.70,0.904,5.33,0.96,< 4.99,0.414,8.61
"IMR-5 (neuroblastoma, adherent)",0.849,5.23,0.977,< 2.40,0.99,< 5.70,0.903,5.31,0.99,< 6.30,0.591,6.27,0.962,< 5.00,0.992,< 5.70,0.988,< 5.30,0.989,< 4.99,0.555,8.26
"JJN-3 (haematopoietic neoplasm, suspension)",0.806,5.39,0.814,2.77,0.99,< 5.70,0.971,< 5.29,0.978,< 6.30,0.687,6.02,0.988,< 5.00,0.992,< 5.70,0.993,< 5.30,0.976,< 4.99,0.548,8.28

# pIC50: −log10 of the molar value. IC50 is the fitted dose that halves viability relative to control wells, and lower means more sensitive; a fit beyond the top or the lowest dose is shown as a bound at that dose. AUC sums up the same curve from the lowest dose to the 256-fold higher top dose; it is 1 without any effect and falls as sensitivity rises. For part of these data: The top dose, if marked as inferred, was calculated from the reported fits.
